This is one part of the list.

The assay concerns the target T1, MBP-FoxP1dN (Mus musculus, UniProt P58462 326-579).
T1 sequence: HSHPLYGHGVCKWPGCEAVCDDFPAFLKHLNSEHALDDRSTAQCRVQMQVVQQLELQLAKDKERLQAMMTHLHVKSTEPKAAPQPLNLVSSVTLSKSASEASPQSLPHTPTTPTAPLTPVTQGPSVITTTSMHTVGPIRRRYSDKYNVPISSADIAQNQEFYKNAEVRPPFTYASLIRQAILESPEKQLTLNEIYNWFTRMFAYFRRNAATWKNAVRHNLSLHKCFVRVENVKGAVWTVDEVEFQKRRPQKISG
Put plainly: PD-seq (MBP pull-down with sequencing); 20 mM Tris-HCl pH 7.5, 100 mM NaCl, 1.5 mM MgCl2, 0.4 uM protein, 0.1 uM dsDNA library, 30 min, room temperature, amylose pull-down; high values mean tight binding. The note with it: protein: recombinant; tags: His6-MBP; chain copies: 2; dsDNA, one strand shown. A digest of the protocol: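 E. coli-expressed mouse FoxP3 or FoxP1 fragment, N-terminus removed and tagged with His6-MBP, was used at 0.4 µM against 0.1 µM of a Klenow-filled degenerate double-stranded DNA library. After 30 min at room temperature in Tris pH 7.5 buffer with NaCl and MgCl2, complexes were pulled down on amylose resin and washed three times. Binding is pull-down over input reads-per-million enrichment from pooled replicates of the proteinase K-released, PCR-barcoded, Illumina-sequenced DNA.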
As for “GATGATTGTTCTCCCAGCTGATGAATTCCGGGCGTCGAGTAAACAAATTTTCCTAATCTTTCTGTTCAAGCGCCATCTAC”, the binding signal was 0.856 RPM ratio (pull-down/input).

In the case of “GATGATTGTTCTCCCAGCTGATGAATTGGAAAAATCGAGTAAACAAATTTTCCTAATCTTTCTGTTCAAGCGCCATCTAC”, the binding signal is 1.01 RPM ratio (pull-down/input).

For the sequence “GATGATTGTTCTCCCAGCTGATGAATTTCAATTATCGAGTAAACAAATTTTCCTAATCTTTCTGTTCAAGCGCCATCTAC”, the binding signal is 1.01 RPM ratio (pull-down/input).

In the case of “GATGATTGTTCTCCCAGCTGATGAATTGCCGTTCTCGAGTAAACAAATTTTCCTAATCTTTCTGTTCAAGCGCCATCTAC”, the binding signal is 0.957 RPM ratio (pull-down/input).

“GATGATTGTTCTCCCAGCTGATGAATTGAAGACCTCGAGTAAACAAATTTTCCTAATCTTTCTGTTCAAGCGCCATCTAC”: the binding signal was 0.728 RPM ratio (pull-down/input).

On to “GATGATTGTTCTCCCAGCTGATGAATTCTGCCATTCGAGTAAACAAATTTTCCTAATCTTTCTGTTCAAGCGCCATCTAC”, for which the binding signal is 0.854 RPM ratio (pull-down/input).

As to “GATGATTGTTCTCCCAGCTGATGAATTTCTGTTTTCGAGTAAACAAATTTTCCTAATCTTTCTGTTCAAGCGCCATCTAC”, the binding signal is 2.32 RPM ratio (pull-down/input).

As to “GATGATTGTTCTCCCAGCTGATGAATTCTGCGTATCGAGTAAACAAATTTTCCTAATCTTTCTGTTCAAGCGCCATCTAC”, the binding signal is 0.998 RPM ratio (pull-down/input).

Consider “GATGATTGTTCTCCCAGCTGATGAATTCTGGTCGTCGAGTAAACAAATTTTCCTAATCTTTCTGTTCAAGCGCCATCTAC”, for which the binding signal is 0.791 RPM ratio (pull-down/input).

“GATGATTGTTCTCCCAGCTGATGAATTTAAGGTGTCGAGTAAACAAATTTTCCTAATCTTTCTGTTCAAGCGCCATCTAC”: the binding signal was 0.883 RPM ratio (pull-down/input).

Consider “GATGATTGTTCTCCCAGCTGATGAATTACAATTCTCGAGTAAACAAATTTTCCTAATCTTTCTGTTCAAGCGCCATCTAC”, for which the binding signal was 1.38 RPM ratio (pull-down/input).

In the case of “GATGATTGTTCTCCCAGCTGATGAATTCGTTGAGTCGAGTAAACAAATTTTCCTAATCTTTCTGTTCAAGCGCCATCTAC”, the binding signal was 0.83 RPM ratio (pull-down/input).

With “GATGATTGTTCTCCCAGCTGATGAATTATTTAGTTCGAGTAAACAAATTTTCCTAATCTTTCTGTTCAAGCGCCATCTAC”, the binding signal was 1.41 RPM ratio (pull-down/input).

As to “GATGATTGTTCTCCCAGCTGATGAATTCCCGGGCTCGAGTAAACAAATTTTCCTAATCTTTCTGTTCAAGCGCCATCTAC”, the binding signal is 0.662 RPM ratio (pull-down/input).

On to “GATGATTGTTCTCCCAGCTGATGAATTCACAGCGTCGAGTAAACAAATTTTCCTAATCTTTCTGTTCAAGCGCCATCTAC”, for which the binding signal was 0.894 RPM ratio (pull-down/input).

Take “GATGATTGTTCTCCCAGCTGATGAATTCCTATTTTCGAGTAAACAAATTTTCCTAATCTTTCTGTTCAAGCGCCATCTAC”: the binding signal is 1.86 RPM ratio (pull-down/input).

Consider “GATGATTGTTCTCCCAGCTGATGAATTACATGTGTCGAGTAAACAAATTTTCCTAATCTTTCTGTTCAAGCGCCATCTAC”, for which the binding signal is 1.16 RPM ratio (pull-down/input).

For “GATGATTGTTCTCCCAGCTGATGAATTCCAAAGTTCGAGTAAACAAATTTTCCTAATCTTTCTGTTCAAGCGCCATCTAC”, the binding signal is 0.81 RPM ratio (pull-down/input).

In the case of “GATGATTGTTCTCCCAGCTGATGAATTCGGGAGTTCGAGTAAACAAATTTTCCTAATCTTTCTGTTCAAGCGCCATCTAC”, the binding signal is 0.811 RPM ratio (pull-down/input).

With “GATGATTGTTCTCCCAGCTGATGAATTCTCAATATCGAGTAAACAAATTTTCCTAATCTTTCTGTTCAAGCGCCATCTAC”, the binding signal was 1.11 RPM ratio (pull-down/input).

Turning to “GATGATTGTTCTCCCAGCTGATGAATTCTACCTGTCGAGTAAACAAATTTTCCTAATCTTTCTGTTCAAGCGCCATCTAC”, the binding signal was 0.805 RPM ratio (pull-down/input).

With “GATGATTGTTCTCCCAGCTGATGAATTCAAGGGATCGAGTAAACAAATTTTCCTAATCTTTCTGTTCAAGCGCCATCTAC”, the binding signal was 0.837 RPM ratio (pull-down/input).

As for “GATGATTGTTCTCCCAGCTGATGAATTCGGACGATCGAGTAAACAAATTTTCCTAATCTTTCTGTTCAAGCGCCATCTAC”, the binding signal was 0.816 RPM ratio (pull-down/input).

As for “GATGATTGTTCTCCCAGCTGATGAATTGTCGACGTCGAGTAAACAAATTTTCCTAATCTTTCTGTTCAAGCGCCATCTAC”, the binding signal is 0.98 RPM ratio (pull-down/input).

In the case of “GATGATTGTTCTCCCAGCTGATGAATTTGTTTGATCGAGTAAACAAATTTTCCTAATCTTTCTGTTCAAGCGCCATCTAC”, the binding signal is 1.47 RPM ratio (pull-down/input).

For “GATGATTGTTCTCCCAGCTGATGAATTGGACAGATCGAGTAAACAAATTTTCCTAATCTTTCTGTTCAAGCGCCATCTAC”, the binding signal is 0.82 RPM ratio (pull-down/input).

Turning to “GATGATTGTTCTCCCAGCTGATGAATTCGATAATTCGAGTAAACAAATTTTCCTAATCTTTCTGTTCAAGCGCCATCTAC”, the binding signal was 0.953 RPM ratio (pull-down/input).

As to “GATGATTGTTCTCCCAGCTGATGAATTTTGTCTCTCGAGTAAACAAATTTTCCTAATCTTTCTGTTCAAGCGCCATCTAC”, the binding signal is 0.968 RPM ratio (pull-down/input).

“GATGATTGTTCTCCCAGCTGATGAATTAATCATGTCGAGTAAACAAATTTTCCTAATCTTTCTGTTCAAGCGCCATCTAC”: the binding signal is 0.997 RPM ratio (pull-down/input).

Consider “GATGATTGTTCTCCCAGCTGATGAATTTGTCTCATCGAGTAAACAAATTTTCCTAATCTTTCTGTTCAAGCGCCATCTAC”, for which the binding signal was 1.19 RPM ratio (pull-down/input).

As for “GATGATTGTTCTCCCAGCTGATGAATTCGCGCGCTCGAGTAAACAAATTTTCCTAATCTTTCTGTTCAAGCGCCATCTAC”, the binding signal was 0.909 RPM ratio (pull-down/input).

In the case of “GATGATTGTTCTCCCAGCTGATGAATTACAATCTTCGAGTAAACAAATTTTCCTAATCTTTCTGTTCAAGCGCCATCTAC”, the binding signal is 1.33 RPM ratio (pull-down/input).

The values above are taken from paper PMC12820563, “FoxP3 forms a head-to-head dimer in vivo and stabilizes its multimerization on adjacent microsatellites”.
